# ± gives the standard deviation of the averaged measurements. Whole data set: some 4,100 sequences, median “relative kcat/Km (krel) vs genomic leader AAAGAU” near 1.7, cut for the highest 2% near 6.5. The list shows a part of the results, in another mix than the full data.
# Molecular target: T1, E. coli RNase P holoenzyme (M1 P RNA + rnpA protein) (UniProt P0A7Y8)
# T1 sequence: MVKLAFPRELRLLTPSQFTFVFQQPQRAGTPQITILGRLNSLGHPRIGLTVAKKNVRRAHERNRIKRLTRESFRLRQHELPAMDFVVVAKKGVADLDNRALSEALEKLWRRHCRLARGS
# Assay: relative kcat/Km (krel) vs genomic leader AAAGAU (relative (reference leader = 1)); higher = faster RNase P cleavage
# Experimental: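 HTS-Kin: a pool of ptRNA-Met (21C construct) with all 4096 combinations of 5' leader nucleotides N(-6) to N(-1) was processed in vitro by E. coli RNase P (P RNA + rnpA/C5 protein) under multiple-turnover conditions at 37 C, pH 8, 17.5 mM MgCl2. Residual substrate was Illumina-sequenced at several fractions reacted, and relative kcat/Km (krel) was computed by internal competition kinetics, calibrated to the genomic leader (AAAGAU = 1). The listed hexamer is the varied N(-6)..N(-1) leader (DNA letters), and it sits between a fixed 5' stem-loop flank (GCAUGCACGAAAGUGCGUGCUAUGAA) and the mature tRNA-Met starting GGCUACGUAGCUCAGUUGG. Two technical replicates are averaged.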
# [1] = fraction of substrate reacted: ~9-10% (9.79% repeat 1, 9.1% repeat 2)
# [2] = fraction of substrate reacted: ~13-16% (15.68% repeat 1, 13.17% repeat 2)
# [3] = fraction of substrate reacted: ~26-29% (28.66% repeat 1, 26.4% repeat 2)
Sequence,relative kcat/Km [1],relative kcat/Km [2],relative kcat/Km [3]
CCCTCC,3.55 ± 1.1,3.38 ± 0.94,4.21 ± 1.1
AGTACA,1.8 ± 0.084,2.74 ± 0.86,3.73 ± 1.9
ACTCTA,1.31 ± 0.6,1.17 ± 0.4,1.63 ± 0.17
TGTGCC,1.63 ± 0.12,1.62 ± 0.43,1.75 ± 0.24
GGCACC,1.52 ± 1.3,1.01 ± 0.24,2.04 ± 0.18
CTAAGT,,1.43 ± 0.51,1.61 ± 1.5
TTACTG,,,1.08 ± 0.42
GAGGAA,0.602 ± 0.52,0.939 ± 0.076,1.79 ± 0.85
ACGCCT,2.29 ± 0.78,1.88 ± 0.059,1.87 ± 0.6
TTTTTG,,0.524 ± 0.47,1.62 ± 0.058
TATAAC,2.65 ± 1.4,3.12 ± 0.54,5.05 ± 2
AGGAGC,1.59 ± 1.1,1.02 ± 0.61,0.969 ± 0.36
ACGATC,2.34 ± 1.4,1.693 ± 0.0099,2.33 ± 0.094
AAGTTT,2.13 ± 0.53,2.04 ± 0.17,2.67 ± 1.1
CACTAT,4.78 ± 1.4,6.06 ± 2,8.37 ± 3.9
AGCCTC,2.21 ± 0.56,2.38 ± 0.16,3.32 ± 1.3
TTCGAG,,1.96 ± 0.07,4.8 ± 1
ACCAAA,2.83 ± 2.3,3.55 ± 0.63,4.37 ± 0.92
ACATGG,,0.298 ± 0.088,0.655 ± 0.37
CAGTAA,3.92 ± 1.4,4.428 ± 0.033,6.07 ± 2
GTGGAA,1.44 ± 0.63,,1.63 ± 1.1
TCTAGC,2.46 ± 0.3,2.18 ± 0.1,3.56 ± 1.4
GCGTAA,1.62 ± 0.52,1.42 ± 0.16,2.5 ± 0.33
CCGCTC,1.44 ± 1.4,2.28 ± 1.4,2.86 ± 0.95
GACCCT,1.62 ± 0.21,2.19 ± 0.85,3.06 ± 1.1
GTAACG,,0.791 ± 0.12,1.8 ± 0.38
GAGTGG,0.249 ± 0.11,,0.78 ± 0.41

Sequence,relative kcat/Km [1],relative kcat/Km [2],relative kcat/Km [3]
CAGCCC,1.8 ± 0.4,1.46 ± 0.23,1.99 ± 0.78
ACGGCA,,,0.61 ± 0.15
CCGCGA,1.97 ± 0.27,2.29 ± 1.1,2.09 ± 0.61
CTATGG,0.695 ± 0.42,,0.694 ± 0.17
AAGAGT,,,0.68 ± 0.56
CCTACA,2.23 ± 1.1,1.82 ± 0.36,1.9 ± 0.68
TGACTC,1.6 ± 1.1,1.5301 ± 0.0012,2.79 ± 0.73
GCCATA,2.49 ± 0.76,2.63 ± 0.3,4.67 ± 1.9
TAACGA,2.21 ± 0.23,2.84 ± 0.52,4.01 ± 2.1
GGCACG,,,0.693 ± 0.54
GAGCGC,0.85 ± 0.13,0.587 ± 0.32,1.38 ± 0.046
AGCGGG,0.0931 ± 0.011,,1.01 ± 0.95
CAGTAT,2.65 ± 0.36,3.77 ± 0.85,5.7 ± 2.5
GCCCCG,,0.45 ± 0.074,1.32 ± 0.2
AAAAAT,1.72 ± 1.1,1.24 ± 0.58,1.72 ± 0.37
GGAACT,,0.728 ± 0.3,1.52 ± 0.097
CAATAA,2.28 ± 0.27,2.951 ± 0.0067,4.25 ± 1.8
CCTTAG,2.17 ± 1.6,2.07 ± 0.55,2.62 ± 0.3
GGCTAT,2.25 ± 0.98,1.99 ± 0.48,2.88 ± 0.85
GCGCGT,,,1.22 ± 1.2
AAGAAA,2.38 ± 1.3,1.63 ± 0.02,2.85 ± 0.63
AGTCCT,2 ± 0.37,2.46 ± 0.26,3.91 ± 1.6
ATGCTG,,,0.658 ± 0.54
GAGCGG,,,0.639 ± 0.21
TCACAT,3.6 ± 1.2,4.18 ± 0.55,6.08 ± 2.7
AATAGA,1.72 ± 1.3,1.85 ± 0.39,3.29 ± 0.63
CTTTAT,4.88 ± 2,5.78 ± 0.63,8.16 ± 3.3

Sequence,relative kcat/Km [1],relative kcat/Km [2],relative kcat/Km [3]
GCCGCA,2.3 ± 0.6,3.11 ± 0.086,5.08 ± 1.7
ACGAAG,,,1.32 ± 0.25
CGTCCG,1.52 ± 0.75,0.713 ± 0.56,1.16 ± 0.23
AAACAT,2.43 ± 1.1,2.55 ± 0.06,3.53 ± 1.4
GCGGCC,1.21 ± 0.092,0.582 ± 0.12,0.642 ± 0.18
CTTTCC,1.8 ± 0.6,2.12 ± 0.92,2.57 ± 0.53
TCGAAC,3.55 ± 1.6,3.72 ± 0.18,5.15 ± 2.2
ATCACC,3.18 ± 0.62,3.68 ± 1,5.67 ± 2
GTCCTT,3.67 ± 1,4.82 ± 0.56,7.02 ± 2.8
GTGGCA,,,1.12 ± 0.86
AGATAA,2.59 ± 0.14,3.51 ± 0.92,5.48 ± 2.6
TCCGTA,2.85 ± 0.05,3.62 ± 0.96,5.51 ± 2.2
TCGTTT,2.4 ± 0.025,2.68 ± 0.65,4.26 ± 2.1
CCTCAA,2.75 ± 1.1,1.99 ± 0.35,3.05 ± 0.33
AAACCC,1.64 ± 0.95,0.786 ± 0.21,1.32 ± 0.083
ATCGAG,2.14 ± 2.1,1.29 ± 0.12,3.85 ± 0.66
GAGTAT,2.33 ± 0.52,3.07 ± 0.75,4.38 ± 2.1
AGCCTT,2.12 ± 0.94,2.28 ± 0.084,2.73 ± 0.55
ACTAAT,1.95 ± 0.5,2.38 ± 0.53,3.22 ± 1.2
GATAAT,1.93 ± 0.55,2.59 ± 1,4.06 ± 2.4
AGGCCG,,,0.467 ± 0.21
AGATGG,0.596 ± 0.51,,0.719 ± 0.16
CAATGT,,1.9 ± 1.3,2.04 ± 1.8
TCTTAA,3.57 ± 1.1,4.04 ± 0.61,5.75 ± 2.3
GGGGTC,,,1.83 ± 1.7
TTAAGG,,,1.04 ± 0.041
GAGGTT,,,1.79 ± 1.5

Sequence,relative kcat/Km [1],relative kcat/Km [2],relative kcat/Km [3]
TGCGTT,0.865 ± 0.51,0.933 ± 0.25,1.31 ± 0.86
GACCCG,,0.0485 ± 0.04,1.32 ± 0.2
TTATTC,2.83 ± 1.9,2.92 ± 0.69,3.96 ± 1.2
CGGGTT,0.764 ± 0.66,,
AGATGA,2.02 ± 0.56,2.67 ± 1.2,4.17 ± 1.6
CTACTT,2.09 ± 0.14,2.2 ± 0.49,2.49 ± 0.63
TGATCT,2 ± 0.61,2.08 ± 0.73,3.43 ± 1.4
TATGTT,0.82 ± 0.16,1.39 ± 0.41,1.53 ± 1
TCTCCG,0.763 ± 0.37,,1.1 ± 0.078
GTACTA,1.56 ± 1.2,1.31 ± 0.12,1.83 ± 0.47
CCTTGC,1.73 ± 0.64,3.05 ± 0.32,4.58 ± 2.1
GTCCAC,5.04 ± 1.9,6.06 ± 1.1,8.78 ± 3.9
CTACTA,1.85 ± 0.72,1.606 ± 0.0065,1.72 ± 0.24
GCCTCT,1.92 ± 0.21,1.99 ± 0.65,3.56 ± 1.4
ACGATG,,1.64 ± 0.42,2.2 ± 0.16
ATTCCG,,,1.01 ± 0.26
TAAGTC,1.12 ± 0.53,1.2 ± 0.022,1.55 ± 0.57
TTTCAT,4.15 ± 1.4,5.11 ± 0.89,7.53 ± 3.4
ATGCCA,,,0.781 ± 0.74
CAGCAC,1.44 ± 0.45,1.95 ± 0.54,3.8 ± 0.91
GCATTA,0.689 ± 0.68,1.14 ± 0.2,1.64 ± 0.63
ATCTGT,,1.3 ± 1.2,1.76 ± 1.5
CGAGGC,0.214 ± 0.16,0.405 ± 0.38,0.974 ± 0.58
CTGAAT,2.16 ± 0.24,2.25 ± 0.29,3.01 ± 0.25

# Source: the supplement of paper PMC9433436
